{"source": "PubChem BioAssay AID1347416", "about": "(National Center for Advancing Translational Sciences (NCATS), 2020)", "note": "Several values for one entry are separate records, joined by “and”; a condition that tells them apart may be missing. Equal values may be shown once. In all, about 4,100 compounds went through this assay and about 1,600 (39%) were called active. Inconclusive means that the source gave no clear call. Such entries were picked first, then a sample of the others. The call rests on the fitted dose curve; in most records, active means well fitted inhibition curve with a large enough effect; inconclusive means small, poorly fitted or top-dose-only effect; inactive means no such curve, though single readings can be large or run the other way. Potencies of inconclusive entries are doubtful fits and often do not repeat. Potency means the concentration at half of the fitted maximal effect; tags describe the fitted curve by direction and shape."}
{"assay": "qHTS Validation assay for Inhibitors of Plasmodium falciparum Dd2 growth in vitro; further: nearly all actives have a fitted effect of over 70% in size", "conditions": "P. falciparum Dd2 in RBCs, SYBR Green growth, 72 h; series mostly up to 28.7 µM", "from_the_text": "Malaria, a parasitic disease spread to humans through the bite of a Plasmodium infected Anopheles mosquito, continues to be a global health burden affecting millions of people, with an estimated 228 million cases and 405,000 deaths in 2018. Concerns about safety and limitations of current antimalarial treatments strongly emphasize the need to develop new therapeutic options. The scarce number of chemotypes and validated drug targets with efficacy against the liver stage, have hindered development of new antimalarials. To address this, a chemoprophylactic drug discovery effort was conducted through a combined phenotypic high-throughput asexual blood stage and liver stage screen, providing a robust foundation to identify liver-stage active lead chemotypes. Compounds were initially screened against Plasmodium falciparum Dd2 strain parasites using a in vitro SYBRGreen-1 based 72 hr proliferation assay to identify novel chemotypes to advance to liver stage assays. NIH/NCATS Early Translation Branch Assay Submitter (PI): Anton Simeonov Ph.D.\n[…] Assay Protocol: PROTOCOL TABLE (as described by Inglese et al., 2007) SEQUENCE No. (e.g., 1, 2, 3, etc.); PARAMETER (e.g., Cells, Incubation, Reagent, etc.); VALUE; DESCRIPTION SEQUENCE, Parameter, Description 1; Reagent; 3 uL complete malaria growth medium, 1536 TC treated Black clear bottom plate 2; Controls; 23 nL positive control artesunate (300 nM final) to column 1; Neutral control DMSO to columns 2-4 3; Compound; 23 nL of compounds in dose response concentration (29 uM to 0.5 nM final) 4; Reagent; 5 uL malaria infected red blood cells (2.5% hematocrit final, 0.3% parasitemia 5; Time; 72 hours at 37C (5% O2, 5% CO2, 90% N2; 95% Rh) 6; Reagent; 2 uL lysis buffer/SYBRGreen-1, 25 sec shake immediately following dispense 7; Time; ~16 hours at 37C (5% O2, 5% CO2, 90% N2; 95% Rh) 8; Detector; EnVision (PerkinElmer) bottom read at 485/14nm excitation and 535/25 nm emission NOTES (numbers refer to sequence above): 1; Complete Malaria Growth Media: 1X RPMI-1640 w/L-glutamine, 5.5g/L Albumax II, 367 uM Hypoxanthine, 25 mM HEPES, 0.25% Sodium Bicarbonate, 35 uM Gentamicin sulfate 2; Controls were added using the Kalypsis Pintool (Wako USA) equipped with 1536 pinhead 3; Compounds were added in a 7-point, titration with a high final concentration of 29 uM by Pintool from seven inter-plate titrations of library plates and two DMSO control plates at the beginning and end (see Yasgar et al., 2008). 4; Red blood cells infected with Plasmodium falciparum Dd2 parasites were used. 6; Lysis buffer: 20 mM Tris-HCl, 10 mM EDTA, 0.16% Saponin, 1.6% Triton-X, 10X SYBR Green. REFERENCE: Inglese J, Shamu CE, Guy RK. 2007. Reporting data from high-throughput screening of small-molecule libraries. Nat Chem Biol. doi:10.1038/nchembio0807-438 Yasgar A, Shinn P, Jadhav A, Auld D, Michael S, Zheng W, Austin CP, Inglese J, Simeonov A. 2008. Compound Management for Quantitative High-Throughput Screening. J Lab Autom 13:79-89. doi:10.1016/j.jala.2007.12.004"}
{"smiles": "COc1cc2c(cc1OC1CCCC1)NC(=O)C21CCN(C(=O)c2cccc(C#N)c2)CC1", "Potency": "inconclusive: 8.41 µM [inhibitor, partial curve]"}
{"smiles": "CCC(CC)c1cc([C@H]2CN3CC[C@H]2C[C@@H]3CNS(=O)(=O)c2ccccc2C#N)nc(-c2ccncc2)n1", "Potency": "active: 1.5 µM"}
{"smiles": "Cc1cc(O)c(CN2CC=C(c3ccccc3)CC2)cc1C(C)C", "Potency": "active: 0.335 µM"}
{"smiles": "Oc1ccc(C2NCc3ccccc3-n3cccc32)cc1Cl", "note": "(stereo not given)", "Potency": "active: 1.19 µM and active: 1.5 µM"}
{"smiles": "O=C(Nc1ccccc1)[C@H]1CN2CCC1C[C@@H]2Cn1cc(CSc2ccccc2)nn1", "note": "(stereo not given in full)", "Potency": "inconclusive: 19.3 µM [inhibitor, single point]"}
{"smiles": "Cc1ccc2c(n1)N(C)[C@H](CO)CCN(CCC(C)C)C2", "Potency": "inconclusive: 24.3 µM [inhibitor, partial curve, poor fit]"}
{"smiles": "Clc1ccc(C(Cn2ccnc2)OCc2csc3c(Cl)cccc23)c(Cl)c1", "note": "(stereo not given)", "Potency": "active: 2.37 µM"}
{"smiles": "COC(=O)C1=C(c2ccc(OC(F)(F)F)cc2)C[C@@H]2CC[C@H]1N2C(=O)NCc1cccc2ccccc12", "Potency": "inconclusive: 3.35 µM [inhibitor, full curve]"}
{"smiles": "O=C(NC1CN2CCC1CC2)c1ccc(-c2ccc([N+](=O)[O-])cc2)o1", "note": "(stereo not given)", "Potency": "inactive"}
{"smiles": "CC(C)(C)c1nc(N2CCN(C(=O)c3ccco3)CC2)c2nnn(Cc3ccccc3Cl)c2n1", "Potency": "inconclusive: 18.8 µM [inhibitor, single point]"}
{"smiles": "OC(Cn1c2ccccc2c2ccccc21)C[n+]1ccccc1", "note": "(stereo not given)", "Potency": "inconclusive: 8.41 µM [inhibitor, partial curve, poor fit]"}
{"smiles": "Cc1ccc(NC(=O)Cn2cc(C(=O)c3ccccc3)c3ccccc32)cc1", "Potency": "inconclusive: 5.96 µM [inhibitor, single point]"}
{"smiles": "CC(C)NC(=O)OC[C@H]1C[C@@H]2CCN1C[C@@H]2c1cc(-c2ccc(F)cc2)nn1C", "Potency": "inconclusive: 13.7 µM [inhibitor, partial curve]"}
{"smiles": "Fc1cccc(CC2CCOC3(CCNCC3)C2)c1", "note": "(stereo not given)", "Potency": "inconclusive: 13.3 µM [inhibitor, partial curve]"}
{"smiles": "NC(=S)c1cn(C2OC(CO)C(O)C2O)c2ncnc(N)c12", "note": "(stereo not given)", "Potency": "inconclusive: 15 µM [inhibitor, single point]"}
{"smiles": "COc1cc2c(cc1OCc1ccccc1)NC(=O)C21CCN(Cc2nccs2)CC1", "Potency": "inconclusive: 27.3 µM [inhibitor, single point]"}
{"smiles": "COc1ccc(-c2cc([C@H]3CN4CC[C@H]3C[C@@H]4CNC(=O)NC3CCCCC3)n(C)n2)cc1", "Potency": "active: 1.88 µM"}
{"smiles": "CCc1ccc(CN2CCN(Cc3cc(Br)ccc3O)CC2)cc1", "Potency": "active: 2.11 µM"}
{"smiles": "COc1ccc(S(=O)(=O)NC[C@H]2C[C@@H]3CCN2C[C@@H]3CN(C)Cc2ccccc2)cc1", "Potency": "inconclusive: 4.73 µM [inhibitor, partial curve]"}
{"smiles": "O=C(Nc1ccc2n(c1=O)C[C@H]1C[C@@H]2CN(Cc2ccc(F)cc2)C1)c1cccs1", "Potency": "active: 15.3 µM"}
{"smiles": "COc1cc2c(cc1OCc1ccccc1)N(C(=O)c1ccn(C)n1)CC21CCN(C)CC1", "Potency": "inconclusive: 16.8 µM [inhibitor, single point]"}
{"smiles": "Cc1[nH]c2ccc(OC(F)(F)F)cc2c1CCNCc1cccc([N+](=O)[O-])c1", "Potency": "inconclusive: 4.73 µM [inhibitor, full curve]"}
{"smiles": "C#C[C@H]1CN2CC[C@H]1C[C@@H]2CNS(=O)(=O)c1ccc2ccccc2c1", "Potency": "inconclusive: 0.544 µM [inhibitor, full curve, poor fit]"}
{"smiles": "Cc1cccc(OC(C)C(=O)NCC2(N(C)C)CCCCC2)c1C", "note": "(stereo not given)", "Potency": "inconclusive: 8.41 µM [inhibitor, partial curve]"}
{"smiles": "O=C1Nc2ccccc2CC12CCN2Cc1ccccn1", "note": "(stereo not given)", "Potency": "inconclusive: 4.33 µM [inhibitor, full curve]"}
{"smiles": "CCOc1cc(C2NCc3ccccc3-n3cccc32)ccc1O", "note": "(stereo not given)", "Potency": "inconclusive: 2.37 µM [inhibitor, full curve, poor fit]"}
{"smiles": "CCC(CC)c1cc([C@H]2CN3CC[C@H]2C[C@@H]3CNC(=O)c2ccc(C)cc2)nc(-c2ccncc2)n1", "Potency": "active: 10.6 µM"}
{"smiles": "CC(C)CCNC(=O)c1cc(C(=O)c2cc(Br)ccc2O)cn(CCC(C)C)c1=O", "Potency": "active: 0.944 µM"}
{"smiles": "COC(=O)C1=C(c2ccc(-c3ccccc3)c(F)c2)C[C@@H]2CC[C@H]1N2C(=O)NCc1cccc2ccccc12", "Potency": "active: 10.6 µM"}
{"smiles": "ClCCN1CCN(c2ccnc3cc(Cl)ccc23)CC1", "Potency": "inconclusive: 16.8 µM [inhibitor, single point]"}
{"smiles": "C=C1C(=O)OC2CC(C)C3C=CC(=O)C3(C)C(O)C12", "note": "(stereo not given)", "Potency": "inconclusive: 1.88 µM [inhibitor, full curve, poor fit]"}
{"smiles": "CCC1(OC(=O)CN)C(=O)OCc2c1cc1n(c2=O)Cc2cc3ccccc3nc2-1", "note": "(stereo not given)", "Potency": "active: 6.68 µM"}
{"smiles": "COc1cc2c(cc1Oc1ccccc1)NC(=O)C21CCN(c2nc(C)cc(C)n2)CC1", "Potency": "inconclusive: 34.4 µM [inhibitor, single point]"}
{"smiles": "O=C(Nc1cccc(Cl)c1)OC1CN2CCC1CC2", "note": "(stereo not given)", "Potency": "inconclusive: 15 µM [inhibitor, single point]"}
{"smiles": "CN1C2CCC1/C(=C/c1ccccn1)C(=O)/C2=C\\c1ccccn1", "Potency": "inconclusive: 3.35 µM [inhibitor, full curve, poor fit]"}
{"smiles": "CN1c2ccc([N+](=O)[O-])cc2CC2(C(=O)NC(=O)N(c3ccc(Br)cc3)C2=O)C1c1ccccc1", "note": "(stereo not given)", "Potency": "inconclusive: 15 µM [inhibitor, single point]"}
{"smiles": "Cc1cccc(-n2c(/C=C/c3c(C)[nH]c4ccccc34)nc3ccccc3c2=O)c1", "Potency": "inconclusive: 3.76 µM [inhibitor, full curve]"}
{"smiles": "COc1cccc(CC(=O)N2[C@H]3CC[C@@H]2c2cnc(-c4ccc(F)cc4)nc2C3)c1", "Potency": "inactive"}
{"smiles": "COc1ccccc1C(=O)N1CCC2(CC1)c1nccn1-c1ccccc1CN2CC(C)C", "Potency": "inconclusive: 11.9 µM [inhibitor, partial curve]"}
{"smiles": "Cc1cccc(NC(=O)N2[C@H]3CC[C@@H]2c2cnc(-c4ccccc4)nc2C3)c1", "Potency": "inconclusive: 21.1 µM [inhibitor, partial curve, poor fit]"}
